# Assay results as given in PubChem BioAssay AID651820 (National Center for Advancing Translational Sciences (NCATS), 2012).
# Hit rate of the full screen: of about 340,000 compounds, about 12,000 (3.5%) were called active. Inconclusive means that the source gave no clear call. Such entries were picked first, then a sample of the others. The call rests on the fitted dose curve; in most records, active means well fitted inhibition curve with a large enough effect; inconclusive means small, poorly fitted or top-dose-only effect, or another doubt; inactive means no such curve, though single readings can be large or run the other way. Potencies of inconclusive entries are left out as doubtful fits.
# Test: qHTS Assay for Inhibitors of Hepatitis C Virus (HCV)
# Settings: Huh7.5.1 HCVcc-Cre (HCVcc is cell-culture hepatitis C virus) infection, luciferase reporter, 44 h; activity change, negative = inhibition: at 41.8 µM (top of the series)
# How it was run: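 After 44 h co-culture of compound, cells and HCVcc-Cre (~0.5 moi), substrate is added for 15 min at room temperature and luciferase measured over 15 sec. Cells were seeded at 1,000/well and pre-cultured 4 h.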
# On the % scale 0 is the no-effect control and ±100 the full control effect; potency means the concentration at half of the fitted maximal effect; tags describe the fitted curve by direction and shape.
SMILES,Potency,"activity change, negative = inhibition"
CCOc1cc(N2CCOCC2)c(OCC)cc1NC(=O)Cc1ccc(OC)c(OC)c1,"inconclusive [inhibitor, single point]",–
COc1cccc(CNCCc2c[nH]c3ccccc23)c1OCc1ccccc1,active: 10 µM,–
Cc1ccc(-c2nnc(Sc3nc4ccccc4o3)c3ccccc23)cc1,"inconclusive [inhibitor, single point]",–
CCc1cc(C(=O)N/N=C/c2ccc(OC)cc2)c2ccccc2n1,"inconclusive [inhibitor, partial curve, poor fit]",–
CCCCC(=O)Nc1ccc(NC(=S)NC(=O)c2ccco2)cc1OC,"inconclusive [inhibitor, single point]",–
COC(=O)c1cccc(Nc2c3c(nc4ccccc24)CCC3)c1,active: 3.16 µM,–
Cc1cc2c3c([nH]c2cc1S(=O)(=O)NCCCOC(C)C)CC(C)(C)CC3=O,"inconclusive [inhibitor, single point]",–
CCCS(=O)(=O)NCCc1cc2c(C)ccc(C)c2[nH]c1=O,"inconclusive [inhibitor, single point]",–
Cc1sc(NC(=S)NC(=O)c2cccs2)nc1-c1ccc(C(C)C)cc1,"inconclusive [inhibitor, full curve, poor fit]",–
CCN(CC(=O)Nc1ccc(NC(C)=O)cc1)C(=O)CCCOc1ccc(C(C)(C)C)cc1,"inconclusive [inhibitor, single point]",–
Cc1ccc(OCCn2c(C3CC(=O)N(Cc4ccccc4)C3)nc3ccccc32)cc1 (stereo unspecified),"inconclusive [inhibitor, single point]",–
O=C(O)CSc1ncnc2scc(-c3ccccc3)c12,inactive,–
Cc1noc(C)c1C(=O)Nc1sc2c(c1C(N)=O)CCCCC2,"inconclusive [inhibitor, single point]",–
CCCn1cnc2c(N)c(C)c(C)cc21,inactive,–
CC12CCC(C/C1=N/OC(=O)c1cccc([N+](=O)[O-])c1)C2(C)C (stereo unspecified),inactive,–
O=C(CN1C(=O)NC2(CCCc3ccccc32)C1=O)c1ccccc1F (stereo unspecified),inactive,–
CN(Cc1ccccc1F)C(=O)c1cccc(NC(=O)CC2SC(N3CCCCC3)=NC2=O)c1 (stereo unspecified),"inconclusive [inhibitor, single point]",–
Cc1ccc(N(Cc2ccccc2)C(=O)c2ccc(Cl)c(S(=O)(=O)N3CCOCC3)c2)cc1,"inconclusive [inhibitor, single point]",–
O=C(NCCC(=O)N1CCN(S(=O)(=O)c2ccccc2Cl)CC1)Nc1ccccc1,"inconclusive [inhibitor, single point]",–
CC(C)=CCc1c(O)c(CC=C(C)C)c2c(c1O)C(=O)CC(c1ccc(O)cc1)O2 (stereo unspecified),"inconclusive [inhibitor, partial curve]",–
COCCCNc1ncnc2sc3c(c12)CCC(C)C3 (stereo unspecified),"inconclusive [inhibitor, single point]",–
O=S(=O)(NCCc1cn2ccccc2n1)c1ccc2c(c1)OCCO2,"inconclusive [inhibitor, partial curve]",–
O=C(NCC(=O)N(c1ccc(F)cc1)C(C(=O)NC1CCCCC1)c1cccnc1)c1ccco1 (stereo unspecified),inactive,–
CCN(CC)CCN(Cc1cc2cc(C)ccc2[nH]c1=O)C(=S)Nc1ccccc1,"inconclusive [inhibitor, single point]",–
CCNS(=O)(=O)c1ccc(OC)c(C)c1,inactive,–
Cc1ccc(C(=O)C2CCN(CC(=O)Nc3nc(C)cs3)CC2)cc1,"inconclusive [inhibitor, single point]",–

SMILES,Potency,"activity change, negative = inhibition"
CC1=CN2C(=N)/C(=C/c3ccc(Sc4ccc(C)cc4)o3)C(=O)N=C2S1,inactive,–
Cn1c(C(=O)NCCN2CCc3ccccc3C2)cc2c(=O)[nH]c3ccccc3c21,inactive,–
COc1ccc(O)c(/C=N/NC(=O)c2ccc(N3CCCC3=O)cc2)c1,active: 11.2 µM,–
COc1ccc(-c2noc(CSc3nnc(Cc4ccccc4)n3-c3ccc(Cl)cc3)n2)cc1,active: 14.1 µM,–
CCOC(=O)c1csc(NC(=O)c2ccccc2)n1,"inconclusive [inhibitor, partial curve]",–
CCOc1ccc(-c2ccc(SCC)nn2)cc1,inactive,–
CCOc1ccc(Nc2nc3c(c(=O)[nH]2)CCC3)cc1,inactive,–
CCn1c(N2CCN(CC(=O)c3c(C)n(C)c4ccc(OC)cc34)CC2)nc2c1c(=O)[nH]c(=O)n2C,–,inconclusive: -41.1% [inhibitor]
O=c1c2cc(NC(=S)N3CCCC3)ccc2nc2n1CCCCC2,inactive,–
CCOc1ccc(C(=O)CCC(=O)N2CCN(c3ccccc3O)CC2)cc1,"inconclusive [inhibitor, single point]",–
CCN(Cc1cc(=O)oc2cc(C)ccc12)c1ccccc1,active: 22.4 µM,–
Cc1cc(C)c(C#N)c(SCC(=O)N2CCN(Cc3ccccc3)CC2)n1,"inconclusive [inhibitor, single point]",–
Fc1ccc(/C=N/NC(=S)Nc2ccc(Cl)cc2)cc1F,inactive,–
COCc1cc(C)nc(OCC(=O)N/N=C/c2ccc(-c3cc([N+](=O)[O-])ccc3C)o2)c1C#N,inactive,–
CCN(CC)S(=O)(=O)c1cc(C(=O)N(C)CC(=O)Nc2ccc(Cl)cc2)ccc1Cl,"inconclusive [inhibitor, single point]",–
CCOc1ccc(NC(=O)c2cccc(NC(=O)c3ccccc3)c2)cc1,"inconclusive [inhibitor, full curve]",–
Nc1ccc(Br)c2c1C(=O)c1ccccc1C2=O,active: 10 µM,–
CC1=C(C(=O)OCc2ccccc2)C(c2ccco2)C2=C(CC(C)(C)CC2=O)N1 (stereo unspecified),"inconclusive [inhibitor, single point]",–
COc1ccc(-c2csc(NC(=S)NC(=O)c3cc4ccccc4o3)n2)cc1Br,inactive,–
Cc1nn(CC(=O)O)c(=O)c2ccccc12,inactive,–
COc1cc(OC)c2c(-c3cccc(-c4ccoc4)c3)cc(=O)oc2c1,"inconclusive [inhibitor, partial curve]",–
Nn1c(SCc2nc3ccccc3[nH]2)nnc1-c1ccccc1,inactive,–
Fc1ccccc1CNc1ncnc2sccc12,active: 2.24 µM,–
N#C/C(=C\c1c(F)cccc1Cl)C(=O)NC1CC1,inactive,–
CCOC(=O)C1CCCN(S(=O)(=O)c2ccc3c(c2)CC(C)N3C(=O)C2CC2)C1 (stereo unspecified),"inconclusive [inhibitor, single point]",–
O=C(CSc1nnc2ccc(-c3ccco3)nn12)Nc1ccccc1F,inactive,–

SMILES,Potency,"activity change, negative = inhibition"
COc1cccc(-c2ccc(C#N)c(SCC(=O)NCCc3cccc(Cl)c3)n2)c1,"inconclusive [inhibitor, single point]",–
COC(=O)[C@@H]1C[C@H]2CC[C@H](O)C[C@H]2N1Cc1ccc(C(F)(F)F)cc1,inactive,–
O=C(Nc1ccc2nc(-c3ccco3)c(-c3ccco3)nc2c1)N1CCCCCC1,active: 2.82 µM,–
CC(C)CNC(=O)c1cccc(NC(=O)c2ccc3c(c2)C(=O)N(C)C3=O)c1,inactive,–
COc1ccc(CCNC(=O)C(=O)NCC2OCCN2S(=O)(=O)c2ccc(Cl)cc2)cc1OC (stereo unspecified),active: 8.91 µM,–
Nc1ccc(S(=O)(=O)c2ccc(NC(=O)c3cccnc3)cc2)cc1,inactive,–
O=C(COC(=O)c1c(Cl)cccc1Cl)NC1CCCCCCC1,"inconclusive [inhibitor, single point]",–
CC(C)CCNC(=O)c1onc(CSc2nc3ccccc3[nH]2)c1C(=O)NCCC(C)C,inactive,–
COc1c(C(=O)Nc2ccc(Cc3ccncc3)cc2)ccc2ccccc12,"inconclusive [inhibitor, single point]",–
Cc1ccccc1C(=O)N1CCC(C(=O)Nc2ccccc2N2CCCC2)CC1,–,inconclusive: -30.8% [inhibitor]
CCC(c1nnnn1CCc1ccccc1)N(Cc1ccco1)Cc1cc2c(C)ccc(C)c2[nH]c1=O (stereo unspecified),active: 11.2 µM,–
OCC(Cl)CCl (stereo unspecified),"inconclusive [inhibitor, single point]",–
COc1ccc(OC)c(C2=NS(=O)(=O)N(C)C(C(=O)NCc3ccco3)=C2)c1,inactive,–
Cc1cc(C(=O)Nc2cnc3ccccc3c2)ccc1[N+](=O)[O-],"inconclusive [inhibitor, single point]",–
CN(C)S(=O)(=O)c1cccc(-c2nn(-c3ccccc3)cc2/C=C(\C#N)c2nc3ccccc3[nH]2)c1,"inconclusive [inhibitor, partial curve]",–
CC(=O)Nc1cccc(Oc2ccc3c(c2)C(=O)NC3=O)c1,inactive,–
O=C(Nc1cccc(S(=O)(=O)N2CCCC2)c1)c1cc(=O)[nH]c2ccccc12,"inconclusive [inhibitor, single point]",–
O=C(O)CCCC(=O)Nc1ccc(-n2ccc(C(F)(F)F)n2)cc1,inactive,–
CCN(CC)S(=O)(=O)c1ccc(C(=O)NCc2cccs2)cc1,inactive,–
COc1ccc(C2CC(c3cccs3)=NN2C(=O)CSc2nc(=O)n3ccccc3n2)cc1 (stereo unspecified),"inconclusive [inhibitor, partial curve]",–
CC(=O)c1c(Cl)nc2ccc(Br)cc2c1-c1ccccc1,"inconclusive [inhibitor, partial curve]",–
COC(=O)C1=C(C)NC(=O)NC1c1ccccc1 (stereo unspecified),inactive,–
Cc1cc(-c2nc3ccccc3[nH]2)ccc1N,inactive,–
COc1ccc(CNc2nc(-c3cccnc3)nn2C(=O)CC(C)C)cc1,"inconclusive [inhibitor, single point]",–
